B1: CPEB3 Ribozyme (parent)
chain: UAACAGGGGGCCACAGCAGAAGCGUUCACGUCGCAGCCCCUGUCAGAUUCUGGUGAAUCUGCGAAUUCUGCUGUAUAUCUC

The source gives no read counts; variants with many changes may rest on few reads.

In the series the parent is B1. Kind of series: self-cleavage, relative activity (ratio to wild type); higher = more cleavage; in vitro, sequencing. Summed up: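 CPEB3 self-cleaving ribozyme mutant libraries were made by rounds of error-prone PCR, barcoded, and transcribed in vitro with T7 RNA polymerase for 5 hours at 37°C. Cleavage occurred during transcription and a 15 min DNase I step before EDTA stop. RNAs were reverse transcribed with template switching and Illumina-sequenced, with DNA sequencing mapping barcodes to variants. Relative activity is the variant's cleaved/total read fraction divided by wild type's (minimum 5 reads), averaged across three batches.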
For the variant UAACAGGGGGCCUCAGCAGAAGCGUUCACGUCGCAGCCCCUGUCAGAUUCUGGUGGACCUGCGAAUUCUGUUGUAUAUCUC [A13U A56G U58C C71U], the self-cleavage came to 0.25.
To UAACAGGGGGCCUCAGCAGAAGCGUUCACGUCGCAGCCCCUGUCAGAUUCUGGUGAAUCUGCGCUUUCUGCUGUAUAUCUC [A13U A64C A65U] belongs 0.22; to UAACAGGGGGCCUCAGCAGAAGCGUUCACGUCGCAGCCCCUGUCAGAUUCUGGUGGAUCUGCGGAUUCUGCUGUAUAUCUC [A13U A56G A64G], 1.17.
To UAACAGGGGGCCUCAGCAGAAGCGUUCACGUCGCAGCCCCUGUCAGAUUCUGGUGGAUCUGCGUAUUCUGCUGUAUAUCUC [A13U A56G A64U] belongs 0.4; to UAACAGGGGGCCUCAGCAGAAGCGUUCACGUCGCAGCCCCUGUCAGAUUCUGGUGGAUCUGCGAAUUCUGCCGUAUAUCUC [A13U A56G U72C], 1.11; to UAACAGGGGGCCUCAGCAGAAGCGUUCACGUCGCAGCCCCUGUCAGAUUCUGGUGUAUCAGCGAAUUCUGCUGUGUAUCCC [A13U A56U U60A A75G U80C], 0.37.
On to UAACAGGGGGCCUCAGCAGAAGCGUUCACGUCGCAGCCCCUGUCAGAUUCUGGUGAAUCUGCGGAUCCUGCUGUAUAUCUC [A13U A64G U67C], for which the self-cleavage stood at 0.32.
To UAACAGGGGGCCUCAGCAGAAGCGUUCACGUCGCAGCCCCUGUCAGAUUCUGGUGAAUCUGCGAGUUCUCCUGUAUAUCAC [A13U A65G G70C U80A] belongs 0.21.
Under UAACAGGGGGCCUCAGCAGAAGCGUUCACGUCGCAGCCCCUGUCAGAUUCUGGUGAAUCUGCGAAUUCUGCUGUCUAACUC [A13U A75C U78A] stands 1.26; under UAACAGGGGGCCUCAGCAGAAGCGUUCACGUCGCAGCCCCUGUCAGAUUCUGGUGAGACUGCGAAUUCUGCUGUAUAUCUC [A13U A57G U58A], 0.28.
With UAACAGGGGGCCUCAGCAGAAGCGUUCACGUCGCAGCCCCUGUCAGAUUCUGGUGGAUCCGCGAAUUCUGCUGUAUAUCUC [A13U A56G U60C], the self-cleavage was 0.48.
To UAACAGGGGGCCUCAGCAGAAGCGUUCACGUCGCAGCCCCUGUCAGAUUCUGGUGAGUCUGCGAAUUCUGCUGUAAAUCUC [A13U A57G U76A] belongs 1.15; to UAACAGGGGGCCUCAGCAGAAGCGUUCACGUCGCAGCCCCUGUCAGAUUCUGGUGAGUCUGCGGAUUCUGCUGUAUAUCUC [A13U A57G A64G], 1.21.
To UAACAGGGGGCCUCAGCAGAAGCGUUCACGUCGCAGCCCCUGUCAGAUUCUGGUGAAUCUGCGGAUUCUACUGUAUAUCUC [A13U A64G G70A] belongs 0.26.
As for UAACAGGGGGCCUCAGCAGAAGCGUUCACGUCGCAGCCCCUGUCAGAUUCUGGUGAAUCUGCGGACUCUGCUGUAUAUCUC [A13U A64G U66C], the self-cleavage came to 0.2.
To UAACAGGGGGCCUCAGCAGAAGCGUUCACGUCGCAGCCCCUGUCAGAUUCUGGUGAGUCUGCGAAUUCCGCUGUAUAUCUC [A13U A57G U69C] belongs 0.49.
Under UAACAGGGGGCCUCAGCAGAAGCGUUCACGUCGCAGCCCCUGUCAGAUUCUGGUGAGUCUGCGAAUUCAGCUGUAUAUCUC [A13U A57G U69A] stands 0.71; under UAACAGGGGGCCUCAGCAGAAGCGUUCACGUCGCAGCCCCUGUCAGGAUCUGGUGCAUCUGCGAAUUCUGCCGUAAAUCUC [A13U A47G U48A A56C U72C U76A], 0.1; under UAACAGGGGGCCUCAGCAGAAGCGUUCACGUCGCAGCCCCUGUCAGAUUCUGGUGUACCUGCGCAUUCUGCUGUAUAUCUC [A13U A56U U58C A64C], 0.16.
Under UAACAGGGGGCCUCAGCAGAAGCGUUCACGUCGCAGCCCCUGUCAGAUUCUGGUGAAUCUGCGAGCUCUGCUGUAAAUCUC [A13U A65G U66C U76A] stands 0.42.
Turning to UAACAGGGGGCCUCAGCAGAAGCGUUCACGUCGCAGCCCCUGUCAGAUUCUGGUGAAUCUGCGGAUUCCGCUGUAUAUCUC [A13U A64G U69C], the self-cleavage worked out at 0.28.
As to UAACAGGGGGCCUCAGCAGAAGCGUUCACGUCGCAGCCCCUGUCAGGUUCUGGUGAAUCUGCGAAUUCUACUGUAUGUCUC [A13U A47G G70A A77G], the self-cleavage was 0.67.
With UAACAGGGGGCCUCAGCAGAAGCGUUCACGUCGCAGCCCCUGUCAGAUUCUGGUGGAUCCGCGAAUUCUGCUGUAUAUGUC [A13U A56G U60C C79G], the self-cleavage is 0.74.
Under UAACAGGGGGCCUCAGCAGAAGCGUUCACGUCGCAGCCCCUGUCAGAUUCUGGUGGAUCUGCGAAUACUGCUGUAUAUCUC [A13U A56G U67A] stands 0.58.
Under UAACAGGGGGCCUCAGCAGAAGCGUUCACGUCGCAGCCCCUGUCAGAUUCUGGUGAGUCUGCGAAUUCUGCUGUAUAACUC [A13U A57G U78A] stands 1.1; under UAACAGGGGGCCUCAGCAGAAGCGUUCACGUCGCAGCCCCUGUCAGAUUCUGGUGGAUCUGCGAAUUCUGCCGAAUAUCUC [A13U A56G U72C U74A], 1.17; under UAACAGGGGGCCUCAGCAGAAGCGUUCACGUCGCAGCCCCUGUCAGAUUCUGGUGAAUCUGCGAGUUCUGCUGUAUACCUC [A13U A65G U78C], 0.55.
As to UAACAGGGGGCCUCAGCAGAAGCGUUCACGUCGCAGCCCCUGUCAGAUUCUGGUGAAUCUGCGUAUUCUGCUGUAUACCUC [A13U A64U U78C], the self-cleavage came out at 0.43.
Turning to UAACAGGGGGCCUCAGCAGAAGCGUUCACGUCGCAGCCCCUGUCAGGUUCUGGUGAACCUGCGAAUUCUGCUGUAUAUCUC [A13U A47G U58C], the self-cleavage was 1.23.
Under UAACAGGGGGCCUCAGCAGAAGCGUUCACGUCGCAGCCCCUGUCAGGUUCUGGUGAAUCUGCGAAUUCUGCUGGAUAUCUC [A13U A47G U74G] stands 1.32; under UAACAGGGGGCCUCAGCAGAAGCGUUCACGUCGCAGCCCCUGUCAGAUUCUGGUGUAUCUGCGGAUUCUGCUGUAUAUCUC [A13U A56U A64G], 0.2.
Under UAACAGGGGGCCUCAGCAGAAGCGUUCACGUCGCAGCCCCUGUCAGGUUCUGGGGAAUCUGCGAAUUCUGCUGUACAUCUC [A13U A47G U54G U76C] stands 1.12; under UAACAGGGGGCCUCAGCAGAAGCGUUCACGUCGCAGCCCCUGUCAGGUUCUGGUGAAUCUGCGAAUUCAGCCGUAUAUCUC [A13U A47G U69A U72C], 0.49.
To UAACAGGGGGCCUCAGCAGAAGCGUUCACGUCGCAGCCCCUGUCAGAUUCUGGUGAAUCUGCGGAUUCUGCUGUAUACCUC [A13U A64G U78C] belongs 0.94.
